Experimental data published in article PMC4336329 (PLoS ONE, 2015).
Out of some 310,000 compounds screened, about 14,000 (4.5%) showed an effect of 50% or more. The effect is printed as a negative number. The list shows a part of the results.

Each compound was assayed against human ether-à-go-go-related gene (hERG) potassium channel (human, UniProt Q12809) (assay: primary screen, population patch clamp on CHO cells stably expressing hERG).
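Also: peak tail current of the secondary pulse compared with the same well before compound.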

human ether-à-go-go-related gene (hERG) potassium channel, sequence (Q12809 whole entry, looked up): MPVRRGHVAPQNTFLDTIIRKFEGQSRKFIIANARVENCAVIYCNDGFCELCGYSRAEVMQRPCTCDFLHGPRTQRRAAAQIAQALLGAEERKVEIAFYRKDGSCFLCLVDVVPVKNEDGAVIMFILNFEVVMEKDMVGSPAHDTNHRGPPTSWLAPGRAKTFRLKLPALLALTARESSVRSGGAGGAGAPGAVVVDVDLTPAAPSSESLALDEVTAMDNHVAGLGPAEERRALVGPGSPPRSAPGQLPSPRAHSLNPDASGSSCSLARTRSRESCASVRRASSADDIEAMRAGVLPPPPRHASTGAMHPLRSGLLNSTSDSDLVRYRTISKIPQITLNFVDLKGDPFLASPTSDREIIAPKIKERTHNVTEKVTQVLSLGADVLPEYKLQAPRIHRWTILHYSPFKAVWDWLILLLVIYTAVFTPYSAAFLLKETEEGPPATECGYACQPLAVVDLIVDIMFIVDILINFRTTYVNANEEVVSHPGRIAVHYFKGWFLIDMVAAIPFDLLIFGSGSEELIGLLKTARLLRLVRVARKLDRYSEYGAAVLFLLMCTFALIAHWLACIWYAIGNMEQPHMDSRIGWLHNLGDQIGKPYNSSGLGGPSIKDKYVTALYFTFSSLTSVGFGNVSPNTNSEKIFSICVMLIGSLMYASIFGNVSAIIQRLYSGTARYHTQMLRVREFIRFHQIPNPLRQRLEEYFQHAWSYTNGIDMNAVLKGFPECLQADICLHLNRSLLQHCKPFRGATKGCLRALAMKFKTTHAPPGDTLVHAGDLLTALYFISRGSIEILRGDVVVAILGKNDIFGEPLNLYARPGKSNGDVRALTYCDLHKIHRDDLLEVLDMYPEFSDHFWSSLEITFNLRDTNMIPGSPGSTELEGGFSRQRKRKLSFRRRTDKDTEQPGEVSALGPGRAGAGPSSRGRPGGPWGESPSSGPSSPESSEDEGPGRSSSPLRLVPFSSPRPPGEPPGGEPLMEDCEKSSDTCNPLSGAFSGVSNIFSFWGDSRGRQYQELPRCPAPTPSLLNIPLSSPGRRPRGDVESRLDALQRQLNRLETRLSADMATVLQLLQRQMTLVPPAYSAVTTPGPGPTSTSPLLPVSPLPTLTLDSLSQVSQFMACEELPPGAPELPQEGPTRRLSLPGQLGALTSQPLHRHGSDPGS

| Structure (SMILES) | hERG current change (%, negative = inhibition) at 10uM [%] |
| --- | --- |
| CCN(C(=O)COC(=O)c1c(C)nsc1NC)c1ccccc1 | -11.9 |
| CC(C)Oc1ccccc1/C=N/NC(=O)c1ccccc1Cl | -12.9 |
| CCS(=O)(=O)N1CCN=C1SCc1cccnc1 | 14.5 |
| Cc1cccc(-n2ncc3c2CCCC3NC(=O)CN2CCOC2=O)c1C (stereo not shown) | 21.4 |
| COc1cccc(C(=O)Nc2ccc(S(=O)(=O)N3CCCCC3)cc2)c1OC | -1.04 |
| Cn1cc(C(=O)N2CCCC(Nc3ccc(F)cc3)C2)c2ccccc21 (stereo not shown) | -21.1 |
| Cc1ccc(CC(=O)N2CC(C)OC(C)C2)cc1 (stereo not shown) | 9.85 |
| Cc1ccc(S(=O)(=O)NCC2CCC(C(=O)NCCCN3CCOCC3)CC2)cc1 (stereo not shown) | 10.8 |
| COc1cc(C(=O)NCc2nnc(SCC(=O)Nc3cc(C)on3)o2)cc(OC)c1OC | 16.6 |
| O=C(OCC(=O)N1CCOCC1)c1ccccc1SCC(=O)N1CCCC1 | 3.13 |
| CCCOc1ccc(C(CC(=O)O)NS(=O)(=O)c2ccc(NC(C)=O)cc2)cc1 (stereo not shown) | 9.49 |
| CCc1nnc(NC(=O)c2ccc(N3C(=O)CCC3=O)cc2)s1 | 11.7 |
| Cc1ccc(NC(=S)Nn2cnnc2)cc1 | 14.5 |
| CN(C(=O)CN(CCO)CC(=O)N(C)C(C)(C)Cc1ccccc1)C(C)(C)Cc1ccccc1 | -3.95 |
| CCc1nnc(NC(=O)C2Cc3ccccc3CN2S(=O)(=O)c2cccs2)s1 (stereo not shown) | 9.85 |
| CC(C)NC(C)Cc1ccc(I)cc1.Cl (stereo not shown) | -38.2 |
| O=C(CSc1n[nH]c(=O)[nH]c1=O)c1ccccc1[N+](=O)[O-] | 16.4 |
| COc1ccc(NC(=O)COC(=O)c2ccc(-n3cnnn3)cc2)cc1Cl | 13.4 |
| COCCCNC(=S)NNC(=O)c1ccc(S(=O)(=O)N2CCC(C)CC2)cc1 | 11.8 |
| COc1ccc(CC(=O)O/N=C(\N)c2ccccc2)cc1OC | 6.1 |
| CC(=O)N(C)c1ccc(NC(=O)Nc2cccc3ccccc23)cc1 | -2.88 |
| Cc1ccc(Nc2nc(-c3ccc(C)cc3)c(CC(=O)O)s2)cc1 | 1.16 |

| Structure (SMILES) | hERG current change (%, negative = inhibition) at 10uM [%] |
| --- | --- |
| Cc1ccc(-c2nnc(Nc3ccc(C(=O)N(C)C)cc3)c3ccccc23)cc1S(=O)(=O)NCC1CCCO1 (stereo not shown) | -26.4 |
| CS(=O)(=O)NCCNC(=O)c1cc(OCC(F)(F)F)ccc1OCC(F)(F)F | -9.74 |
| COC(=O)CN1C(=O)[C@H]2[C@@H](c3ccc(C)o3)N3C(=O)CN(Cc4ccccc4)C(=O)[C@@]3(Cc3ccccc3)[C@H]2C1=O | -9.75 |
| COc1ccc(/C=N/n2cnc3c([nH]c4ccccc43)c2=O)cc1CO | 11.2 |
| CC1CCN(CCCCOc2ccc(Cl)cc2)CC1.O=C(O)C(=O)O | -71.7 |
| CN(C)CCCNC(=S)Nc1ccc(Br)cc1 | -11.6 |
| CCOc1ccc(C2CC(=O)N(Nc3ccc([N+](=O)[O-])cc3[N+](=O)[O-])C2=O)cc1 (stereo not shown) | -51.7 |
| CCOC(=O)N1CCC(N2CC34C=CC(O3)C(C(=O)Nc3ccc(OCC)cc3)C4C2=O)CC1 (stereo not shown) | -18.7 |
| CCOc1cc(C(=S)N2CCN(C)CC2)ccc1OCC(=O)N1CCOCC1 | 12.2 |
| CN(C)c1ccc(CNCc2cccnc2)cc1 | 7.68 |
| CC(C)(C)OC(=O)NCCC(=O)N/N=C/c1cccc2cccnc12 | -0.667 |
| Cn1c(Oc2ccc3c(c2)OCO3)nc2c1c(=O)n(Cc1ccccc1)c(=O)n2C | 13.6 |
| COC(=O)C/C=N/N=C1/NC(=O)/C(=C/C(=O)O)S1 | 16 |
| COc1ccc(Cl)cc1S(=O)(=O)N1CCN=C1C | -2.74 |
| O=C1/C(=C/c2cccnc2)SC(=S)N1c1ccc(O)cc1 | 12 |
| COc1ccc(S(=O)(=O)N2CCCCC2)cc1NC(=O)Cn1c(=O)cnc2ccccc21 | -10.6 |
| Nc1nc(Nc2ccccc2)n[nH]1 | 8.15 |
| COc1ccc(CCNC(=O)CCCN2C(=O)C(c3ccccc3)Oc3cccnc32)cc1OC (stereo not shown) | -15.9 |
| O=C(CSc1ncn(-c2ccccc2)n1)Nc1nc2ccccc2s1 | 7.04 |
| O=c1[nH][nH]c2cc(=O)n(-c3cccc(C(F)(F)F)c3)nc12 | 4.36 |
| COC(=O)c1ccc(NC(=O)CSc2nncn2C)cc1 | 16.1 |
| CN(Cc1ccccc1)C(=C(Cl)Cl)/C(=C1/NCCN1C)[N+](=O)[O-] | 24.6 |

| Structure (SMILES) | hERG current change (%, negative = inhibition) at 10uM [%] |
| --- | --- |
| O=C(/C=N/O)NCc1ccncc1 | 14.5 |
| O=c1cccc2n1C[C@H]1C[C@@H]2CN2CCCC[C@@H]12 | 7.74 |
| COc1cc2[nH]c(=O)n(CCCC(=O)N3CC=C(c4ccccc4)CC3)c(=O)c2cc1OC | -12.9 |
| CN1CCN(C(c2ccc(F)cc2)c2nnnn2Cc2cccs2)CC1.Cl (stereo not shown) | -21 |
| CN(C)CC/C=C1\c2ccc(F)cc2Sc2cc(F)c(Cl)cc21.Cl | -37.6 |
| Cn1nc(CSc2ccccc2)c(C=O)c1Cl | 8.12 |
| CCOc1cccc(C(=O)Nc2cccc(-c3nc4ncccc4o3)c2C)c1 | -22.9 |
| C=C(C)COc1ccc(-c2[nH]ncc2-c2ccc(OC)c(OC)c2)c(O)c1 | -0.891 |
| Cc1ccc(C(C)C)c(OC(=O)/C=C/c2ccccc2)c1 | 9.52 |
| Cc1cc(C)cc(C(=O)NC(CC(N)=O)c2ccc(NC3CCCCCC3)c([N+](=O)[O-])c2)c1 (stereo not shown) | 1.73 |
| CCCn1c(CN2CCN(C(=O)OCC)CC2)nc2cc(NC(=O)CC)ccc21 | 0.0715 |
| Cn1c(CCN2CCCCC2)nc2cc(NC(=O)COc3ccccc3)ccc21 | -78 |
| COC(=O)c1cc(=O)c2c([N+](=O)[O-])ccc(OC)c2o1 | -1.62 |
| CCCCN(CCCC)CC1OCc2ccccc2CO1 | -33.9 |
| Cl.NC(N)=Nc1nc(-c2ccccc2)c2cc(Cl)ccc2n1 | -67.9 |
| COc1cccc(Cn2nnc(C(=O)NCc3ccc4c(c3)OCO4)c2N)c1 | -11.9 |
| COc1ccc(C(O)(C2CCCCC2)C(CN2CCOCC2)c2ccccc2)cc1.Cl (stereo not shown) | 8.74 |
| O=C(Cn1nc(-c2ccc(F)cc2)ccc1=O)Nc1ccc(C(=O)NC2CC2)cc1 | -38.3 |
| Cc1cc(C(=O)Nc2c(C)nn(Cc3ccc(F)cc3)c2C)on1 | -5.54 |
| COC(=O)c1c(NC(=O)c2cccc(N3C(=O)CCC3=O)c2)sc2c1CCN(C(C)=O)C2 | 6.74 |
| Cc1cccc(NC(=S)N=Nc2c(O)[nH]c3ccccc23)c1 | 4.04 |
| Cc1ccc(CNC(=O)CSc2nc(N3CCCCC3)nc(N3CCCCC3)n2)cc1 | 7.64 |

| Structure (SMILES) | hERG current change (%, negative = inhibition) at 10uM [%] |
| --- | --- |
| COc1ccccc1S(=O)(=O)Cc1ccc(C(=O)N2CCCC2)o1 | 8.21 |
| CCCN1CNC(=S)N(c2ccccc2OC)C1 | -0.472 |
| CS(=O)(=O)N(CC(=O)O)c1ccc(Oc2ccccc2)cc1 | 16.6 |
| COc1ccc(/C=C2\OC(=S)N(C)C2=O)cc1 | 15.2 |
| CCCCOCCCn1c(N)c(C(=O)OCCOC)c2nc3ccccc3nc21 | -32.9 |
| NC(=O)C1Cc2ccccc2CN1C(=O)c1nn(Cc2ccccc2)c(=O)c2ccccc12 (stereo not shown) | -29.3 |
| Cc1ccc(S(=O)(=O)N(CC(=O)N2CCc3ccccc3C2)c2cccc(Cl)c2)cc1 | 5.73 |
| COc1ccc2c(C)c(CC(=O)N3C[C@H]4C[C@@H](C3)c3cccc(=O)n3C4)c(=O)oc2c1C | -3.48 |
| COc1cc2c(C(=O)N3CCN(C)CC3)c(C)oc2cc1Br | -25.8 |
| CCN(CC)CC(=O)N1c2ccccc2CCc2ccc(NC(=O)c3cc(OC)c(OC)c(OC)c3)cc21 | 1 |
| COc1ccc(C(=O)NC(=S)NNC(=O)c2ccccc2O)cc1 | 19.4 |
| C#CCOCCOCCOCCNc1nc(N2CCN(C(=O)CCCCCCCCCCNC(=O)[C@H]([C@@H](C)CC)n3cc(CCCCN=C(N)N)nn3)CC2)nc(N2CCN(C(=O)CCCCCCCCCCNC(=O)[C@@H]([C@H](C)O)n3cc(C)nn3)CC2)n1 | 12.8 |
| NS(=O)(=O)c1ccc(NC(=O)COC(=O)c2cnccn2)cc1 | 16.1 |
| C#CC(CC)(CC)NC(=O)c1nn(-c2ccccc2Cl)c(C)cc1=O | 9.07 |
| CC(C)CCNC(=O)C(c1ccco1)N(C(=O)Cn1nnc2ccccc21)c1ccc2c(c1)OCO2 (stereo not shown) | -3.12 |
| COc1ccc(N/C(=C(/C(Cl)=C(Cl)Cl)[N+](=O)[O-])n2nnc3ccccc32)cc1OC | 10.1 |
| COCCn1c(N)c(N(Cc2ccccc2)C(=O)C2CCCC2)c(=O)[nH]c1=O | 15 |
| O=C(CCCOc1ccccc1)n1nnc2ccccc21 | 11.3 |
| O=C(CN1CCN(C(=O)C2CCCO2)CC1)Nc1cc(Cl)ccc1Cl (stereo not shown) | -61.9 |
